PubChem BioAssay AID624417 (National Center for Advancing Translational Sciences (NCATS), 2012)
Hit rate of the full screen: of about 410,000 compounds, about 6,400 (1.6%) were called active. Inconclusive results, whose numbers are uncertain, are shown with a selection of clear calls. Calls come from the whole dose curve; as a rule, active = well fitted inhibition curve with a large enough effect; inconclusive = small, poorly fitted or top-dose-only effect; inactive = no such curve, though single readings can be large or run the other way. Potencies of inconclusive entries are left out as doubtful fits.

Molecular target: Glucagon-like peptide 1 receptor (Homo sapiens) (UniProt P43220)
Assay: qHTS of GLP-1 Receptor Inverse Agonists (Inhibition Mode); note: nearly all actives have a fitted effect of over 55% in size
Conditions: HEK293 GLP-1R CRE-luciferase, luminescence, 24 h; Potency: GLP-1R form is constitutively active unless noted; activity change, negative = inhibition: at 38.3 µM (top of the series) unless noted
Outline: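 Assay principle: reduced luminescence from a cAMP-responsive reporter in HEK293 cells co-expressing a constitutively active GLP-1R. Conditions: 24 hr compound incubation, 37 deg C, 5% CO2.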
% is set by controls: 0 for no effect and ±100 for the full control effect; potency is the fitted concentration of half-maximal effect; tags give direction and shape of the fitted curve.

Sequence of UniProt P43220 (P43220 whole entry, looked up): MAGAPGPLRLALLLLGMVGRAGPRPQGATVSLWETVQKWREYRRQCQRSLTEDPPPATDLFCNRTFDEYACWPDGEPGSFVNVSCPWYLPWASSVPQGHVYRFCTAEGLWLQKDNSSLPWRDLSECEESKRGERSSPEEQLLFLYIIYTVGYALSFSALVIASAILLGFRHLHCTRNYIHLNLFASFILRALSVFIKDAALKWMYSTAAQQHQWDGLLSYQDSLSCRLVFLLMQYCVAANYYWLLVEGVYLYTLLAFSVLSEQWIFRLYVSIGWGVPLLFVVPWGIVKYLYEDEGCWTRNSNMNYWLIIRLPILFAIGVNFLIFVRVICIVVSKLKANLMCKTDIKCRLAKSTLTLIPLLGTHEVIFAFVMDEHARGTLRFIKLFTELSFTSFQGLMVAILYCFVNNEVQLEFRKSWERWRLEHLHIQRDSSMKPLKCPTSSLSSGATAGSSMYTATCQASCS

Compound | Potency | activity change, negative = inhibition
Cc1ccc(S(=O)(=O)N2CCCc3cc(NS(=O)(=O)c4cc(C)ccc4C)ccc32)cc1 | inconclusive [inhibitor, single point] | 
COc1ccc(Cl)cc1C(=O)C1CCCN(CCO)C1 (stereo unspecified) | inconclusive [inhibitor, partial curve, poor fit] | 
CCCCCCOc1ccc(CN2CCN(CCO)CC2)cc1 | active: 2.51 µM [setting not given] | 
COc1cccc(C(=O)Nc2ccc3nc(SCC(=O)N(C)c4ccccc4)sc3c2)c1 | inconclusive [inhibitor, partial curve, poor fit] | 
CCCNC(=O)c1cc2c(c(-c3cccc(-c4cc5ccccc5o4)c3)n1)[C@H](CCO)N(C(=O)NC(C)C)C2 | inconclusive [inhibitor, partial curve] | 
Cc1ccc(CN2CCCC(C(=O)c3sccc3C)C2)o1 (stereo unspecified) | inconclusive [inhibitor, partial curve] | 
COC(=O)C1=C(c2ccc(F)cc2OCc2ccccc2)C[C@@H]2CC[C@H]1N2C(=O)NC1CCCCC1 | inconclusive [inhibitor, partial curve, poor fit] | 
O=C(NCC1=C(c2ccc3ccccc3c2)C[C@@H]2CC[C@H]1N2Cc1ccco1)c1ccncc1 | inconclusive [inhibitor, partial curve, poor fit] | 
NC(CCc1ccccc1)c1csc(NC(=O)Nc2ccccc2Oc2ccccc2)n1 (stereo unspecified) | inconclusive [inhibitor, single point] | 
COc1ccc(CNCCc2ccc(Cl)cc2)c(OC)c1OC | inconclusive [inhibitor, single point] | 
COC(=O)C1=C(c2cccc(OCc3ccccc3)c2)C[C@@H]2CC[C@H]1N2C(=O)NCCOc1ccccc1Cl | inconclusive [inhibitor, partial curve, poor fit] | 
Nc1c(Br)cc(Br)cc1CNC1CCC(O)CC1 (stereo unspecified) | inconclusive [inhibitor, partial curve, poor fit] | 
N[C@@H](Cc1c[nH]c2ccccc12)c1nnc(SCc2ccc(Cl)cc2)o1 | inconclusive [inhibitor, full curve, poor fit] | 
COP(=O)(OC)c1nc(-c2cccc3ccccc23)oc1N1CCOCC1 |  | inactive: 44.3% [at 38.3 µM, GLP-1R form is constitutively active]
CCn1c(O)c(C=NCc2cccs2)c(=O)n(CC)c1=S | inconclusive [inhibitor, single point] | 
CCOC(=O)N(C)c1ccc(C(O)(C(=O)OCC)C(F)(F)F)cc1 (stereo unspecified) | inconclusive [inhibitor, single point] | 
Cc1[nH]c2c(C(F)(F)F)cccc2c1CCN | inconclusive [inhibitor, partial curve, poor fit] | 
Cc1cccc(CN2CCN(C(=O)Cc3ccccc3)CC2)c1 | inconclusive [inhibitor, partial curve, poor fit] | 
COC(=O)C1C2c3ccccc3C(c3ccccc32)C1(C)C(=O)OC (stereo unspecified) | inconclusive [inhibitor, partial curve, poor fit] | 
CN(C(=O)CNC(=O)OCc1ccccc1)c1ccc(Br)cc1C(=O)c1ccccc1Cl | active: 2.82 µM [setting not given] | 
COc1ccccc1Cc1c(-c2ccc(C)cc2)nc2cc(C)c(Br)c(C)n12 | inconclusive [inhibitor, partial curve, poor fit] | 

Compound | Potency | activity change, negative = inhibition
CCOc1cc2c(cc1OCC)-n1cccc1C(c1ccc(C(C)C)cc1)NC2 (stereo unspecified) | inconclusive [inhibitor, full curve, poor fit] | 
CCCOc1ccc(N2CC(C(=O)Nc3ccccc3F)CC2=O)cc1 (stereo unspecified) | inconclusive [inhibitor, single point] | 
CCN1C(=O)/C(=C/c2ccc3c(c2)CCN3CCCCl)C(=O)NC1=S |  | inactive: 4.04%
c1ccc(C(c2ccccc2)c2ccncc2)cc1 | inconclusive [inhibitor, full curve, poor fit] | 
CCC1C2CC3C4N(C)c5ccccc5C45CC(C2C5O)N3[C@@H]1O (stereo partly specified) |  | inactive: 0.137%
Cc1nc(SCc2c(Cl)cccc2Cl)nc(OC(=O)N(C)C)c1C | inconclusive [inhibitor, single point] | 
COC(=O)C1=C(c2ccccc2OCc2ccccc2)C[C@@H]2CC[C@H]1N2C(=O)NCc1ccc(N(C)C)cc1 | inconclusive [inhibitor, partial curve, poor fit] | 
CC[C@H]1CC2CN3CCc4c([nH]c5ccccc45)C(C(=O)OC)(C2)C13 (stereo partly specified) | inconclusive [inhibitor, single point] | 
COc1ccc2ccccc2c1CNCCc1ccccc1 | inconclusive [inhibitor, partial curve, poor fit] | 
COC1CC2C=C(C)C=CC=CC(=O)NC(c3ccccc3)CC=CCCC(O)CC(=O)C2=C1O (stereo unspecified) | inconclusive [inhibitor, full curve, poor fit] | 
CCCN1CCCC(C(=O)c2cc(C)c(OC)c(C)c2)C1 (stereo unspecified) | inconclusive [inhibitor, single point] | 
CCCn1c(C)c(C(=O)c2cccc3ccccc23)c2ccccc21 | inconclusive [inhibitor, single point] | 
Cc1cccc(N=Nc2ccc(N(C)C)cc2)c1 | inconclusive [inhibitor, single point] | 
CC(C)(C)OC(=O)N1CCCC(C(=O)Nc2cccc(C(=O)NCCc3ccccc3)c2)C1 (stereo unspecified) | inconclusive [inhibitor, single point] | 
O=c1c2ccccc2nc(/C=C/c2ccc3c(c2)OCO3)n1-c1cccc(O)c1 | inconclusive [inhibitor, single point] | 
CN1C(=O)C(=Cc2ccc(N3CCOCC3)o2)C(=O)N(C)C1=S |  | inactive: 15.6%
O=Cc1cn(Cc2c(F)cccc2Cl)nc1-c1ccccc1 | inconclusive [inhibitor, single point] | 
Cc1ccc(C)c(NC2=NCCCS2)c1 | inconclusive [inhibitor, single point] | 
C=CC[C@@H](CC(=O)N(CCO)Cc1ccccc1)C(=O)NC[C@H](OC(=O)[C@@H](CC=C)CC(=O)OC(C)(C)C)c1ccccc1 | inconclusive [inhibitor, partial curve, poor fit] | 
CCc1nnc(NC(=O)CCc2nc(C3=CCN(C)CC3)no2)s1 | inconclusive [inhibitor, partial curve, poor fit] | 
COc1cc(Cl)c(C)cc1NC(=O)CCCn1c(=O)oc2ccccc21 | inconclusive [inhibitor, single point] | 

Compound | Potency | activity change, negative = inhibition
CSc1cccc(CNC(=O)C2CCC(=O)N(Cc3cccc(C(F)(F)F)c3)C2)c1 (stereo unspecified) | inconclusive [inhibitor, single point] | 
COC(=O)C1=C(c2ccc(OCc3ccccc3)cc2)C[C@@H]2CC[C@H]1N2C(=O)NCc1ccc2[nH]ccc2c1 | inconclusive [inhibitor, partial curve, poor fit] | 
Cc1ccc(-n2sc3ccccc3c2=O)cc1 | inconclusive [inhibitor, single point] | 
CC1(C)CSC(=NCc2ccccc2)N1 | inconclusive [inhibitor, single point] | 
Cc1cccc(CN2CC=C(c3noc(CCC(=O)Nc4ccc(C)c(F)c4)n3)CC2)c1 | inconclusive [inhibitor, single point] | 
CC(C)CCOP(=O)(c1ccc(N(C)C)cc1)C(O)c1ccc(C(C)C)cc1 (stereo unspecified) | inconclusive [inhibitor, single point] | 
COC(=O)[C@@H]1[C@@H](C(=O)OC)C2(c3ccccc3-c3ccccc32)N(c2ccc(Cl)cc2)N1C#N | active: 3.98 µM [setting not given] | 
On1ccccc1=S | active: 7.94 µM [setting not given] | 
CC(C)COP(=O)(OCC(C)C)C(Nc1ccccc1)c1ccccc1 (stereo unspecified) | active: 11.2 µM | 
Cc1cc(C)c2c(c1)NP(=S)(c1ccccc1)N2 (stereo unspecified) | inconclusive [inhibitor, partial curve] | 
CN1C2CCC1CC(OC(=O)c1cc(Cl)cc(Cl)c1)C2 (stereo unspecified) | inconclusive [inhibitor, full curve, poor fit] | 
Fc1ccc(C2=CCN(C(c3ccc(Cl)cc3)c3nnnn3Cc3ccccc3)CC2)cc1 (stereo unspecified) | active: 5.62 µM [setting not given] | 
Cc1ccc2c(c1)N(CCC(=O)N1CCC3(CC1)OCCO3)C(=O)CO2 | inconclusive [inhibitor, single point] | 
Cc1ccc(OCCn2cccc2/C=C2/C(=O)NC(=O)N(Cc3ccco3)C2=O)cc1 |  | inactive: -25.3%
CCC(C)N1C(=O)/C(=C\c2ccc(N3CCCCCC3)cc2)C(=O)NC1=S (stereo unspecified) |  | inactive: 8.44%
Nc1ccc(Cl)cc1C(=O)c1ccccc1 | inconclusive [inhibitor, single point] | 
CCOP(=O)(OCC)C(Cc1ccccc1)N=C(c1ccccc1)c1ccccc1 (stereo unspecified) | inconclusive [inhibitor, single point] | 
COC(=O)C1=C(c2ccc(F)cc2OCc2ccccc2)C[C@@H]2CC[C@H]1N2C(=O)NCc1ccc(Br)cc1 | inconclusive [inhibitor, partial curve, poor fit] | 
CC(=O)OC1CC(OC2C(O)CC(OC3C(O)CC(OC4CCC5(C)C(CCC6C5CCC5(C)C(C7=CC(=O)OC7)C(O)CC65O)C4)OC3C)OC2C)OC(C)C1OC1OC(CO)C(O)C(O)C1O (stereo unspecified) |  | inactive: -82.1% [at 38.3 µM, GLP-1R form is constitutively active]
